{"source": "the supplement of paper PMC4604168 (melanoma cell lines)", "assay_in_all_cases": "cell count relative to DMSO control; melanoma cells; higher = more viable cells", "details_in_all_cases": "library dose: low library concentration; 72 h", "key": {"MZ2-MEL": {"tested_on": "MZ2-MEL"}, "MeWo": {"tested_on": "MeWo"}, "RPMI7951": {"tested_on": "RPMI7951"}, "RVH-421": {"tested_on": "RVH-421"}, "SkMel28": {"tested_on": "SkMel28"}, "SkMel2": {"tested_on": "SkMel2"}, "SkMel30": {"tested_on": "SkMel30"}, "SkMel5": {"tested_on": "SkMel5"}, "UACC257": {"tested_on": "UACC257"}, "UACC62": {"tested_on": "UACC62"}}, "note": "This is one part of the list. Many values rest on one well or one pass, so single values are uncertain.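 Note: cell number obtained by counting DAPI-stained nuclei in high-throughput microscope images with image analysis software, screen run in 1,536-well plates.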"}
{"smiles": "N#CC[C@H](C1CCCC1)n1cc(-c2ncnc3[nH]ccc23)cn1", "note": "[ruxolitinib] + COc1cc(Nc2ncc(F)c(Nc3ccc4c(n3)NC(=O)C(C)(C)O4)n2)cc(OC)c1OC [Tamatinib] (first compound 1 µM, partner dose 0.4 µM)", "values": [{"measurement": "cell count", "setting": "MZ2-MEL", "value": 86.3, "unit": "%"}, {"measurement": "cell count", "setting": "MeWo", "value": 82.2, "unit": "%"}, {"measurement": "cell count", "setting": "RPMI7951", "value": 95.7, "unit": "%"}, {"measurement": "cell count", "setting": "RVH-421", "value": 108, "unit": "%"}, {"measurement": "cell count", "setting": "SkMel28", "value": 91.5, "unit": "%"}, {"measurement": "cell count", "setting": "SkMel2", "value": 107, "unit": "%"}, {"measurement": "cell count", "setting": "SkMel30", "value": 93.1, "unit": "%"}, {"measurement": "cell count", "setting": "SkMel5", "value": 84.6, "unit": "%"}, {"measurement": "cell count", "setting": "UACC257", "value": 79.6, "unit": "%"}, {"measurement": "cell count", "setting": "UACC62", "value": 86.6, "unit": "%"}]}
{"smiles": "Cc1cc(Nc2cc(N3CCN(C)CC3)nc(Sc3ccc(NC(=O)C4CC4)cc3)n2)n[nH]1", "note": "[Tozasertib] + Oc1cc(-c2nc(-c3ccccc3)[nH]c2-c2ccncc2)ccc1Cl [L779450] (first compound 0.006 µM, partner dose 0.2 µM)", "values": [{"measurement": "cell count", "setting": "MZ2-MEL", "value": 74.3, "unit": "%"}, {"measurement": "cell count", "setting": "MeWo", "value": 85.8, "unit": "%"}, {"measurement": "cell count", "setting": "RPMI7951", "value": 99.4, "unit": "%"}, {"measurement": "cell count", "setting": "RVH-421", "value": 108, "unit": "%"}, {"measurement": "cell count", "setting": "SkMel28", "value": 81.5, "unit": "%"}, {"measurement": "cell count", "setting": "SkMel2", "value": 104, "unit": "%"}, {"measurement": "cell count", "setting": "SkMel30", "value": 88.6, "unit": "%"}, {"measurement": "cell count", "setting": "SkMel5", "value": 94.3, "unit": "%"}, {"measurement": "cell count", "setting": "UACC257", "value": 76.2, "unit": "%"}, {"measurement": "cell count", "setting": "UACC62", "value": 78, "unit": "%"}]}
{"smiles": "Cc1cc(Nc2cc(N3CCN(C)CC3)nc(Sc3ccc(NC(=O)C4CC4)cc3)n2)n[nH]1", "note": "[Tozasertib] + C[C@]1(c2nc3c(C(N)=O)cccc3[nH]2)CCCN1 [Veliparib] (first compound 0.006 µM, partner dose 1.4 µM)", "values": [{"measurement": "cell count", "setting": "MZ2-MEL", "value": 94.9, "unit": "%"}, {"measurement": "cell count", "setting": "MeWo", "value": 88.5, "unit": "%"}, {"measurement": "cell count", "setting": "RPMI7951", "value": 80.8, "unit": "%"}, {"measurement": "cell count", "setting": "RVH-421", "value": 88.1, "unit": "%"}, {"measurement": "cell count", "setting": "SkMel28", "value": 74.2, "unit": "%"}, {"measurement": "cell count", "setting": "SkMel2", "value": 85.2, "unit": "%"}, {"measurement": "cell count", "setting": "SkMel30", "value": 85, "unit": "%"}, {"measurement": "cell count", "setting": "UACC62", "value": 81.9, "unit": "%"}]}
{"smiles": "Cc1cc(Nc2cc(N3CCN(C)CC3)nc(Sc3ccc(NC(=O)C4CC4)cc3)n2)n[nH]1", "note": "[Tozasertib] + COc1cc(Nc2ncc(F)c(Nc3ccc4c(n3)NC(=O)C(C)(C)O4)n2)cc(OC)c1OC [Tamatinib] (first compound 0.006 µM, partner dose 0.4 µM)", "values": [{"measurement": "cell count", "setting": "MZ2-MEL", "value": 85.8, "unit": "%"}, {"measurement": "cell count", "setting": "MeWo", "value": 88, "unit": "%"}, {"measurement": "cell count", "setting": "RPMI7951", "value": 87.5, "unit": "%"}, {"measurement": "cell count", "setting": "RVH-421", "value": 106, "unit": "%"}, {"measurement": "cell count", "setting": "SkMel28", "value": 84.3, "unit": "%"}, {"measurement": "cell count", "setting": "SkMel2", "value": 97.4, "unit": "%"}, {"measurement": "cell count", "setting": "SkMel30", "value": 64.8, "unit": "%"}, {"measurement": "cell count", "setting": "SkMel5", "value": 78.6, "unit": "%"}, {"measurement": "cell count", "setting": "UACC257", "value": 73.3, "unit": "%"}, {"measurement": "cell count", "setting": "UACC62", "value": 88.6, "unit": "%"}]}
{"smiles": "CC[C@]1(O)C[C@H]2CN(CCc3c([nH]c4ccccc34)[C@@](C(=O)OC)(c3cc4c(cc3OC)N(C=O)[C@H]3[C@@](O)(C(=O)OC)[C@H](OC(C)=O)[C@]5(CC)C=CCN6CC[C@]43[C@@H]65)C2)C1", "note": "[vincristine] + CN(C)S(=O)(=O)c1ccc2c(c1)/C(=C/c1cc3c([nH]1)CCCC3)C(=O)N2 [SU6656] (first compound 0.0001 µM, partner dose 0.4 µM)", "values": [{"measurement": "cell count", "setting": "MZ2-MEL", "value": 92.5, "unit": "%"}, {"measurement": "cell count", "setting": "MeWo", "value": 83.4, "unit": "%"}, {"measurement": "cell count", "setting": "RPMI7951", "value": 71.2, "unit": "%"}, {"measurement": "cell count", "setting": "RVH-421", "value": 76.5, "unit": "%"}, {"measurement": "cell count", "setting": "SkMel28", "value": 58.8, "unit": "%"}, {"measurement": "cell count", "setting": "SkMel2", "value": 103, "unit": "%"}, {"measurement": "cell count", "setting": "SkMel30", "value": 51.3, "unit": "%"}, {"measurement": "cell count", "setting": "SkMel5", "value": 78.8, "unit": "%"}, {"measurement": "cell count", "setting": "UACC257", "value": 34, "unit": "%"}, {"measurement": "cell count", "setting": "UACC62", "value": 74.1, "unit": "%"}]}
